Drawing on PubChem BioAssay (NCI), this text covers GI50 and TGI for 78 compounds.

“And” between values parts separate entries of the source, which are not always exact repeats. Identical values can stand only once.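 96-well plates; 48 h exposure; 5 concentrations. Endpoints by linear interpolation between flanking doses. Not reached: highest tested concentration assigned. GI50 is the concentration that inhibits growth by half. At the TGI there is no net growth.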 Square brackets hold non-standard residues; d marks the D form. Peptide text beside a SMILES is read from it. * marks the point of attachment. NMeAc5c = CNC1(C(=O)O)CCCC1; Boc = CC(C)(C)OC(=O)*; OBn = c1ccc(CO*)cc1 Where only a bound is given, the exact number is not on record here.

For this assay, the system named is NCI-H322M lung. Nature of the assay: growth of human tumour cells (NCI), 48 h.

`FC(F)(F)c1cccc(Nc2nc(-c3ccccc3)nc3ncccc23)c1`: the GI50 is 12.1 µM and the TGI came to 40.7 µM.

Consider `COc1ccc2cc(NC(=O)N/N=C\c3ccc([N+](=O)[O-])cc3)ccc2c1`, for which the TGI is over 100 µM.

Consider `COC1/C=C/OC2(C)Oc3c(C)c(O)c4c(O)c(c(/C=N/Nc5ccc([N+](=O)[O-])cc5[N+](=O)[O-])c(O)c4c3C2=O)NC(=O)C(C)=C/C=C/C(C)C(O)C(C)C(O)C(C)C(OC(C)=O)C1C` (centres undefined), for which the GI50 is 9.24 µM and the TGI stood at 21.6 µM.

With `CO/C(=N\N=C\c1ccc(C(F)(F)F)cc1)c1ccncc1`, the TGI was over 10 µM.

Compound `CC1(C(=O)O)CCC[C@@]2(C)C1CC[C@@]1(C)c3cocc3CCC21` (some centres undefined) displayed a TGI of over 100 µM.

For `c1ccc(N=c2sc3ccccc3nc2Nc2ccccc2)cc1`, the TGI is over 100 µM.

In the case of `CCC[CH2][Sn]([CH2]CCC)([S]c1cccc2cccnc12)[S]c1cccc2cccnc12`, the GI50 was 0.218 µM and the TGI amounted to 0.474 µM.

`O=c1[nH]c(Nc2cccc(CC(F)(F)F)c2)nc2nc[nH]c12`: the TGI is over 100 µM.

Regarding `O=C(Nc1ccc(-n2ccc3c(NC(=O)c4ccccc4)nccc32)cc1)c1ccc(Cl)c(C(F)(F)F)c1`, the GI50 was 6.88 µM and the TGI was over 30.5 µM.

In turn, `COc1cc2ccnc([C@@H](OC(=O)c3ccccc3)c3ccc(OC)c(OC)c3OC)c2cc1OC` yielded a TGI of over 100 µM.

For `CCOC(=O)Cn1c(C(F)(F)F)nc2nc(Cl)c(Cl)nc21`, the TGI came to 51.4 µM.

With `COc1ccccc1N1C(=O)C2c3[nH]c4ccccc4c3C3CCC(C(C)(C)C)CC3C2C1=O` (centres undefined), the TGI is over 100 µM.

`C=C(C)C(=O)OC1C/C(CO)=C\C(O)C/C(C)=C/C2OC(=O)C(=C)C21` (centres undefined): the TGI came out at 83.6 µM.

As for `C=C(C)C(OC)C(O)CC1(C)CC(O)CC(C)(C2CCC3OC(C4(C)CCC(Br)C(C)(C)O4)CCC3(C)O2)O1` (centres undefined), the GI50 is 15.1 µM and the TGI was determined as 33.2 µM.

`COC(=O)c1c(C)cccc1C1CN=NC12Cc1ccc(C)cc1C2=O` (centres undefined) gave a TGI of over 100 µM.

`O=C(N/N=C(/COc1ccc(Cl)cc1)N=Cc1ccncc1)c1ccncc1` came in with a TGI of over 100 µM.

`COc1cc(Br)cc2cc(-c3cn4ccsc4n3)c(=O)oc12` registered a TGI of over 100 µM.

On to `OC1CSSC1Cn1cnc2c(Nc3ccc(OCc4cccc(F)c4)c(Cl)c3)ncnc21` (centres undefined), for which the GI50 was 1.5 µM and the TGI stood at 6.78 µM.

As to `O=C(CCN1CCCCC1)C(=Cc1ccccc1)C(=O)CCN1CCCCC1`, the TGI was over 100 µM.

For `Cc1cc(-c2nc(C(=O)Nc3cc4oc(N5CCOCC5)nc4nc3N3CC[C@@H](O)C3)co2)ccn1`, the GI50 is 29.3 µM and the TGI is over 100 µM.

Compound `O=[N+]([O-])c1ccc2c(c1)c(OCc1ccccc1)nn2Cc1ccccc1` showed a TGI of over 100 µM.

On to `O=C1CCCc2cc3c(cc21)CC1(Cc2ccccc2C1)C3`, for which the TGI amounted to 31.3 µM.

`CCOC(=O)CCC1(C(=O)OCC)CCCCC1=O` (centres undefined) showed a TGI of over 100 µM.

Consider `COC(=O)C1SC(SC)=NC12c1ccccc1Nc1ccccc12` (centres undefined), for which the TGI is over 100 µM.

Compound `COC(=O)C([C@H](NC1(c2ccccc2)c2ccccc2-c2ccccc21)C(=O)OC)N(NC(=O)OCc1ccccc1)C(=O)OCc1ccccc1` (mixture of isomers) gave a TGI of over 100 µM.

On to `CN(C)C(=O)O/N=C1/C(c2c(O)[nH]c3ccccc23)=Nc2ccccc21`, for which the TGI came to 58.8 µM.

`CN1CCCCC1CCN1c2ccccc2Sc2ccc(Cl)cc21` (centres undefined): the GI50 is 4 µM and the TGI was 15.6 µM.

Take `O=C(CCc1nc(=S)[nH][nH]1)Nc1ccc(Cl)c(Cl)c1`: the TGI was over 100 µM.

Regarding `N#Cc1c(-c2ccccc2)/c(=C\Nc2cccc(C(F)(F)F)c2)c(=O)n2c1nc1ccccc12`, the TGI was over 100 µM.

`Cc1cc(NS(=O)(=O)c2ccc(Nc3c4ccccc4nc4c(C(=O)N5CCN(CCOS(C)(=O)=O)CC5)cccc34)cc2)no1` had a TGI of over 100 µM.

Consider `CCN1/C(=C\c2cc[n+](CC)c3ccccc23)C=Cc2ccccc21`, for which the GI50 is 0.413 µM and the TGI amounted to 11.8 µM.

The compound `CN(C(=O)C(Cc1ccccc1)NC(=O)OC(C)(C)C)C1(C(=O)NC(Cc2ccccc2)C(=O)OCc2ccccc2)CCCC1` (stereo not drawn) (Boc-Phe-[NMeAc5c]-Phe-OBn; configuration not given here) displayed a TGI of over 100 µM.

As to `Cc1nc2sccn2c1-c1csc(Nc2ccccc2Cl)n1`, the GI50 is 10.1 µM and the TGI was over 100 µM.

The compound `O=C1/C(=C/c2ccccc2)N=C2Sc3c(nc[nH]c3=O)N12` displayed a TGI of over 100 µM.

As to `CCC(=O)[C@H](C)[C@@H](OC(=O)[C@H](C)CC)[C@H](C)[C@H]1OC(CC)=C(C)C(=O)[C@@H]1C`, the GI50 is 31 µM and the TGI is over 100 µM.

In turn, `CCC(C(=O)O)c1ccc(OC)cc1` (centres undefined) yielded a TGI of over 100 µM.

With `O=C(Nc1ccc(F)cc1)Nc1ccc(Cl)c([N+](=O)[O-])c1`, the GI50 was 3.31 µM and the TGI amounted to 12.1 µM.

Regarding `CCN1CCN(Cc2ccc(NC(=O)c3cccc(C#Cc4cccc5[nH]nc(N)c45)c3)cc2C(F)(F)F)CC1`, the GI50 is 0.59 µM and the TGI was determined as 1.77 µM.

Regarding `O=c1ccc(-c2ccccc2)n[nH]1`, the TGI was over 100 µM.

As to `Nc1ccccc1C#C/C=C\C#Cc1ccccc1OC(F)(F)F`, the GI50 is 9.09 µM and the TGI amounted to 82.2 µM.

Turning to `CC(=O)NC(Cc1ccc(O)cc1)C(=O)O` (centres undefined), the TGI is over 100 µM.

On to `CCOC(=O)c1csc(NC(=O)CN2CCOCC2)n1`, for which the TGI was over 100 µM.

For `O=C(O)CCC(NC(=O)c1ccc(Nc2nc3ccccc3nc2-c2cccs2)cc1)C(=O)O` (centres undefined), the TGI was over 100 µM.

`COc1cccc(C(=O)O[C@H]2[C@@H]3[C@]4(OC(C)=O)CO[C@@H]4C[C@H](O)[C@@]3(C)C(=O)[C@H](OC(C)=O)C3=C(C)[C@@H](OC(=O)[C@H](O)[C@@H](NC(=O)OC(C)(C)C)c4ccco4)C[C@]2(O)C3(C)C)c1`: the TGI was over 37.5 µM.

`CNC(=S)OCCC(C)CCCC(C)C` (centres undefined) returned a TGI of 36.5 µM.

For `OCc1cc2ccccc2c2c3c(ccc12)OCO3`, the GI50 was 40.3 µM and the TGI came out at 208 µM.

`Cc1n[nH]c(=O)n1/N=C/c1ccc(Cl)cc1`: the TGI is over 100 µM.

Regarding `COC(=O)/C=C1\S/C(=N\NC(=O)c2cc3ccc2/C=C\c2ccc(cc2)/C=C\3)N(c2ccccc2)C1=O`, the GI50 was 2.02 µM and the TGI is 4.75 µM.

For `C=CCO[C@H]1CO[C@H]2[C@@H]1OC[C@@H]2Oc1ccc(Nc2ccnc(Nc3ccc(O[C@H]4CO[C@H]5[C@@H]4OC[C@@H]5OCC=C)c(Cl)c3)n2)cc1Cl`, the GI50 is 1.58 µM and the TGI was 2.96 µM.

`O=C1/C(=C\c2ccccc2)C(NC2CCCCC2)c2ccccc21` (centres undefined) displayed a TGI of 25.9 µM.

On to `Nc1c(C(=O)c2cccc(CCS(N)(=O)=O)c2)cnn1-c1ccc(F)cc1`, for which the GI50 was over 25 µM and the TGI was over 25 µM.

`COc1ccc(-c2c(C#N)c(-c3ccc(C)cc3)n(NS(=O)(=O)c3ccc(C)cc3)c(=O)c2C#N)cc1` displayed a TGI of over 100 µM.

`N#Cc1c(N2CCCC2)ncn(-c2ccccc2)c1=O` had a TGI of over 100 µM.

The compound `Cc1ccc(Cl)c2[nH]c(-c3ccccc3)cc(=O)c12` gave a TGI of over 100 µM.

For the compound `C=CC(=O)Nc1cc(Nc2ncc(C(=O)OC(C)C)c(-c3cn(C)c4ccccc34)n2)c(OC)cc1N(C)CCN(C)C`, the GI50 was under 0.012 µM and the TGI was 12 µM.

The compound `CCOC(=O)/C=C/CC(C)(C)CCOC(C)=O` yielded a TGI of over 10 µM.

As for `Cc1ccc(CN2CCC(C(=O)Nc3ccc(-c4cc5ccccc5[nH]4)cc3)CC2)o1`, the GI50 is over 100 µM and the TGI was over 100 µM.

For `COc1ccc(N/N=C2\CCOc3ccc(C)cc3C2=O)cc1`, the TGI is over 100 µM.

On to `Cn1cc(C2=C(c3c4n(c5ccccc35)CCCCC4)C(=O)NC2=O)c2ccccc21`, for which the GI50 is 13.5 µM and the TGI was over 25 µM.

`COc1cnc2c(c1)C(=O)c1c-2n(CCCN2CCOCC2)c(=O)c2cc(F)ccc12`: the GI50 was 0.435 µM and the TGI was over 100 µM.

`COC(=O)C1(C(C)C)CCc2c(OC)ccc(OC)c2C1=O` (centres undefined): the TGI is over 100 µM.

Consider `CC[C@@H]1CC[C@@H]2[C@H](CC[C@]3(C)[C@@H](OC(C)=O)CC[C@@H]23)[C@H]1COC(C)=O`, for which the TGI is over 100 µM.

In turn, `COCO[C@@H]1C[C@H]2C(=O)Nc3ccccc3C(=O)N2C1` showed a TGI of over 100 µM.

For `COc1cc2cc(OC)c3cc4c(cc3c2c(OC)c1OC)OCO4`, the TGI was over 100 µM.

As to `O=C(Nc1nc2ccc([N+](=O)[O-])cc2s1)C(=O)C(C1OC(=O)c2ccccc21)[N+](=O)[O-]` (centres undefined), the TGI is over 100 µM.

The compound `C[C@@H](NC(=O)[C@@H]1C[C@]1(C)COC(=O)c1cc([N+](=O)[O-])cc([N+](=O)[O-])c1)c1cccc2ccccc12` showed a TGI of over 100 µM.

Turning to `COc1cccc(C2c3cc4c(cc3OC(C)(N3CCCC3)C2C)OCO4)c1O` (centres undefined), the TGI stood at 12.7 µM.

As for `NC(N)=NS(=O)(=O)c1ccc(Nc2c3ccccc3nc3c(C(=O)NCCO)cccc23)cc1`, the GI50 was 18.5 µM.

As to `CCCCCCCCCCCCCC(=O)OC(/C=C/C(C)C)C(O)C(O)C(OC)C(=O)NC1CCCCN(C)C1=O` (centres undefined), the GI50 was over 49 µM; the TGI is 13.9 µM and > 49 µM.

Turning to `Cc1ccnc2c1ccc1c(C)ccnc12`, the GI50 is 0.451 µM and the TGI came to 11.8 µM.

On to `Cc1ccc(NC(=O)Nc2ccc(-c3cccnc3)cc2N2CCC(CO)CC2)cc1`, for which the GI50 was 3.77 µM and the TGI is over 100 µM.

`ClCCN1CCC2(CC1)SSC1(CCN(CCCl)CC1)S2` had a TGI of over 100 µM.

Compound `O=[N+]([O-])c1ccc2c(c1)/C(=N/N=C1c3ccccc3Cc3ccccc31)c1cc([N+](=O)[O-])cc([N+](=O)[O-])c1-2` gave a TGI of 7.95 µM.

`Cc1ccc(C(=O)O)cc1S(=O)(=O)Nn1cnc2ccc(S(=O)(=O)Nc3ccccc3C(=O)O)cc2c1=O` had a TGI of over 100 µM.

As for `Cc1ccc(Cl)c2c(N=Nc3ccccc3[N+](=O)[O-])c(O)[nH]c12`, the TGI was over 100 µM.

Turning to `COc1cc2c(c(OC)c1OC)C(=O)[C@@H]1[C@H]2N1C(N)=O`, the TGI was over 100 µM.

On to `O=C1NC(=NCCc2cccc(F)c2)S/C1=C\c1ccc2ncccc2c1`, for which the GI50 was over 23.7 µM and the TGI was over 25 µM.

Consider `[N-]=[N+]=NC[C@H]1OCO[C@H](CN=[N+]=[N-])[C@@H](OCCOCCCl)[C@@H]1OCCOCCCl`, for which the TGI is over 100 µM.
